Laboratory results as given in the supplement of paper PMC9151546.
Most values come without repeats; read them as rough.

Columns and labels:
CHO-K1 [1] = assay: hypodiploid nuclei frequency (% of nucleated events); higher = more hypodiploid events (aneugenic)
Description: (§1)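 Flow-cytometric in vitro micronucleus assay (Litron MicroFlow) in CHO-K1 cells in 96-well plates, 19 concentrations (4.5-200 µM, n=1 per concentration). Without S9, cells were exposed for 24 h and sampled at 48 h. With Aroclor 1254-induced rat liver S9, cells were exposed for 3-4 h and sampled at 27-28 h. Read-outs are %MN and %hypodiploid nuclei relative to nucleated events, and relative survival as the nuclei-to-bead ratio versus the 1% DMSO vehicle control (x100).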

CHO-K1 [2] = assay: micronucleus frequency (% of nucleated events); higher = more micronuclei (genotoxic)
CHO-K1 [3] = assay: relative survival (nuclei to bead ratio vs DMSO control) (% of vehicle control); higher = more surviving cells
Description: as §1
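For hypodiploid nuclei frequency (% of nucleated events) in this document: hypodiploid nuclei gated on a flow cytometer with 488 nm excitation after SYTOX Green staining, cultures at 37 °C, positive controls vinblastine without S9 and cyclophosphamide with S9.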
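For micronucleus frequency (% of nucleated events) in this document: cells lysed with nuclei stained by SYTOX Green, then micronucleus-gated events counted against nucleated events by flow cytometry with 488 nm excitation.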
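For relative survival (nuclei to bead ratio vs DMSO control) in this document: Lysed-cell nuclei stained with SYTOX Green and counted against counting beads by flow cytometry at 488 nm excitation, with vinblastine (no S9) and cyclophosphamide (plus S9) as positive controls.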

O=C1NC(=O)C(c2ccccc2)(c2ccccc2)N1 [5,5-Diphenylhydantoin]
Conditions	hypodiploid nuclei frequency, CHO-K1 [1] [%]	micronucleus frequency, CHO-K1 [2] [%]	relative survival, CHO-K1 [3]
concentration: 4.5 (µM), S9 metabolic activation: with S9, exposure time: 3-4 hours	0.24	0.92	99.9
concentration: 4.5 (µM), S9 metabolic activation: without S9, exposure time: 24 hours	0.78	0.96	104
concentration: 5.63 (µM), S9 metabolic activation: with S9, exposure time: 3-4 hours	0.26	0.9	102
concentration: 5.63 (µM), S9 metabolic activation: without S9, exposure time: 24 hours	0.4	1.38	121
concentration: 7.04 (µM), S9 metabolic activation: with S9, exposure time: 3-4 hours	0.18	1.04	83.8
concentration: 7.04 (µM), S9 metabolic activation: without S9, exposure time: 24 hours	0.76	2.4	111
concentration: 8.8 (µM), S9 metabolic activation: with S9, exposure time: 3-4 hours	0.24	1.7	98.9
concentration: 8.8 (µM), S9 metabolic activation: without S9, exposure time: 24 hours	0.76	1.58	121
concentration: 11 (µM), S9 metabolic activation: with S9, exposure time: 3-4 hours	0.3	1.22	98.9
concentration: 11 (µM), S9 metabolic activation: without S9, exposure time: 24 hours	0.7	1.78	91.4
concentration: 13.7 (µM), S9 metabolic activation: with S9, exposure time: 3-4 hours	0.24	1.3	111
concentration: 13.7 (µM), S9 metabolic activation: without S9, exposure time: 24 hours	0.46	2.24	133
concentration: 17.2 (µM), S9 metabolic activation: with S9, exposure time: 3-4 hours	0.42	1.32	119
concentration: 17.2 (µM), S9 metabolic activation: without S9, exposure time: 24 hours	0.8	2.04	121
concentration: 21.5 (µM), S9 metabolic activation: with S9, exposure time: 3-4 hours	0.24	1.48	94.8
concentration: 21.5 (µM), S9 metabolic activation: without S9, exposure time: 24 hours	0.78	2.32	113
concentration: 26.8 (µM), S9 metabolic activation: with S9, exposure time: 3-4 hours	0.32	0.44	91.3
concentration: 26.8 (µM), S9 metabolic activation: without S9, exposure time: 24 hours	0.88	2.12	109
concentration: 33.6 (µM), S9 metabolic activation: with S9, exposure time: 3-4 hours	0.16	0.78	98.9
concentration: 33.6 (µM), S9 metabolic activation: without S9, exposure time: 24 hours	0.66	1.78	110
concentration: 41.9 (µM), S9 metabolic activation: with S9, exposure time: 3-4 hours	0.22	0.82	88
concentration: 41.9 (µM), S9 metabolic activation: without S9, exposure time: 24 hours	1.04	2.12	127
concentration: 52.4 (µM), S9 metabolic activation: with S9, exposure time: 3-4 hours	0.22	1.06	96
concentration: 52.4 (µM), S9 metabolic activation: without S9, exposure time: 24 hours	0.84	1.62	119
concentration: 65.5 (µM), S9 metabolic activation: with S9, exposure time: 3-4 hours	0.1	0.86	92.6
concentration: 65.5 (µM), S9 metabolic activation: without S9, exposure time: 24 hours	1.32	2.8	103
concentration: 81.9 (µM), S9 metabolic activation: with S9, exposure time: 3-4 hours	0.3	1.38	94.2
concentration: 81.9 (µM), S9 metabolic activation: without S9, exposure time: 24 hours	0.78	2.86	109
concentration: 102 (µM), S9 metabolic activation: with S9, exposure time: 3-4 hours	0.18	1.4	99.9
concentration: 102 (µM), S9 metabolic activation: without S9, exposure time: 24 hours	0.88	1.9	100
concentration: 128 (µM), S9 metabolic activation: with S9, exposure time: 3-4 hours	0.32	1.14	96.5
concentration: 128 (µM), S9 metabolic activation: without S9, exposure time: 24 hours	1.54	2.84	101
concentration: 160 (µM), S9 metabolic activation: with S9, exposure time: 3-4 hours	0.3	1.02	98
concentration: 160 (µM), S9 metabolic activation: without S9, exposure time: 24 hours	1.54	3.24	99.3
concentration: 200 (µM), S9 metabolic activation: with S9, exposure time: 3-4 hours	0.24	1.14	102
concentration: 200 (µM), S9 metabolic activation: without S9, exposure time: 24 hours	1.56	3.86	68.3
